{"source": "PubChem BioAssay AID1240", "about": "(Sanford-Burnham Center for Chemical Genomics, 2008)", "note": "About 800 (1.6%) of roughly 50,000 compounds showed an effect of 50% or more. The list shows a part of the results.", "data": [{"target": "Bcl-2-like protein 10 (Homo sapiens) (UniProt Q9HD36)", "sequence (Q9HD36 whole entry, looked up)": "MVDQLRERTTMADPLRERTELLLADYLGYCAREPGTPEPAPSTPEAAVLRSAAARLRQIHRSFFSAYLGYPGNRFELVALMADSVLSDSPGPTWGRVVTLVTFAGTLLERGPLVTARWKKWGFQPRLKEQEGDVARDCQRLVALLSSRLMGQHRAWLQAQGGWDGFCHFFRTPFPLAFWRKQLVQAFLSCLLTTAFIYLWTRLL", "assay": "Phenotype converters, Bcl-B/TR3 peptide binding displacement, primary biochemical FP (AID 1240);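 note: 0% = Bcl-B with tracer peptide and DMSO and 100% = tracer peptide lacking Bcl-B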", "conditions": "GST-Bcl-B / FITC-TR3 peptide fluorescence polarization; stronger effect = higher value; compound at 3.75 mg/L", "units": {"displacement": "%"}, "values": [{"smiles": "O=C(COc1ccc(Br)cc1)N1CCCCC1", "displacement": -7.4}, {"smiles": "COc1ccc(/C=N/NC(=O)c2ccccn2)cc1Cl", "displacement": -4.7}, {"smiles": "CC(Oc1cccc(Cl)c1)C(=O)Nc1ccccc1Br", "note": "(configuration not stated)", "displacement": -3.7}, {"smiles": "CCCOC(=O)c1c(-c2ccc(Br)cc2)csc1N", "displacement": -4.3}, {"smiles": "CCc1ccccc1N1C(=O)C2C(c3ccccc3Cl)OC3(C(=O)c4ccccc4C3=O)C2C1=O", "note": "(configuration not stated)", "displacement": -5.1}, {"smiles": "COC(=O)c1c(NC(=O)c2cc3ccccc3o2)sc2c1CCC(C)C2", "note": "(configuration not stated)", "displacement": -4.1}, {"smiles": "CCCCOP(=O)(CP(=O)(OCCCC)OCCCC)CP(=O)(OCCCC)OCCCC", "displacement": 14}, {"smiles": "COc1cc(/C=C2\\C(=O)N(C)C(=O)N(c3ccccc3)C2=O)cc(OC)c1O", "displacement": -4.6}, {"smiles": "N#Cc1ccc(/C=N/N2C(=O)C3C(C2=O)C2C=CC3C23CC3)c([N+](=O)[O-])c1", "note": "(configuration not stated)", "displacement": 7.9}, {"smiles": "O=[N+]([O-])c1cccc(Nc2ncnc3ccc(Br)cc23)c1", "displacement": -2.5}, {"smiles": "COc1cc(NC(=O)COc2cccc(C)c2)cc(OC)c1", "displacement": 2.1}, {"smiles": "COc1ccc2c3c([nH]c2c1)C(=O)CCC3", "displacement": 9.8}, {"smiles": "Cn1c(NC(=O)c2ccc([N+](=O)[O-])cc2Cl)cc(=O)n(C)c1=O", "displacement": 12.2}, {"smiles": "Cc1ccc(C(=O)C[n+]2ccccc2C)cc1[N+](=O)[O-]", "displacement": 12.3}, {"smiles": "O=[N+]([O-])c1ccc(C2Nc3ccc(I)cc3C3C=CCC32)cc1", "note": "(configuration not stated)", "displacement": 9.4}, {"smiles": "O=C(NC(=S)NNc1nc(-c2ccccc2)cs1)c1cc2ccccc2oc1=O", "displacement": 2.3}, {"smiles": "C=CCOc1ccccc1C=C1C(=O)NC(=S)NC1=O", "displacement": 15.2}, {"smiles": "COC(=O)C1(CC(=O)C(C)(C)C)NN=C(c2ccccc2)S1", "note": "(configuration not stated)", "displacement": 10}, {"smiles": "CC1=C(C(=O)OCCc2ccccc2)C(c2ccc(Cl)cc2Cl)CC(=O)N1", "note": "(configuration not stated)", "displacement": -6.4}, {"smiles": "Cc1ccc(NC(=O)c2c(NC(=O)C(F)(F)F)sc(-c3ccccc3)c2C)c(C)c1", "displacement": -2.8}, {"smiles": "COc1ccc(Br)cc1/C=C/C(=O)Nc1ccc(Cl)cc1", "displacement": 16.1}, {"smiles": "CCN(CC)S(=O)(=O)c1cc(C(=O)Nc2cccc(O)c2)ccc1Cl", "displacement": -2.1}, {"smiles": "COc1ccc(/C=C2\\SC(=O)N(Cc3ccccc3)C2=O)cc1OC", "displacement": 2.8}, {"smiles": "CS(=O)(=O)N(Cc1ccc(C(=O)Nc2cccc(C(F)(F)F)c2)cc1)c1ccccc1", "displacement": 5.2}, {"smiles": "O=C(O)c1ccccc1-c1ccccc1C(=O)Nc1ccc(Br)cn1", "displacement": -15.4}, {"smiles": "O=C(Nc1ccc(Cl)c(Cl)c1)Nc1nnc(-c2ccc(Br)cc2)s1", "displacement": 0.8}, {"smiles": "O=C(Nc1ccc2ccccc2c1)c1ccccc1F", "displacement": -8.5}, {"smiles": "C/C(=N\\O)c1ccc2c(c1)c1cc(/C(C)=N/O)ccc1n2C(C)C", "displacement": 2.5}, {"smiles": "O=C1CN(c2ccc(Cl)cc2)C(=O)N1", "displacement": 8}, {"smiles": "O=[N+]([O-])c1ccc(C2SCCN2S(=O)(=O)c2ccc3ccccc3c2)cc1", "note": "(configuration not stated)", "displacement": 11.2}, {"smiles": "O=C(Nc1ccccc1)Nc1nnc(CSCc2ccc(F)cc2)s1", "displacement": 4}, {"smiles": "CCOC(=O)c1ccc2c(c1)C1C=CCC1C(c1ccc(F)cc1)N2", "note": "(configuration not stated)", "displacement": 8.4}, {"smiles": "CC(C)(C)C(=O)/C=C(/N)c1ccccn1", "displacement": 14.1}, {"smiles": "CCOc1cc(OCC)cc(C(=O)Nc2ccc(Cl)cc2)c1", "displacement": 11.9}, {"smiles": "O=C(c1ccc(Cl)cc1Cl)N1CCN(c2ccccc2)CC1", "displacement": -13.3}, {"smiles": "COc1cc([N+](=O)[O-])ccc1-c1ccc(/C=C2/SC(=S)N(c3ccccc3)C2=O)o1", "displacement": 8.8}, {"smiles": "O=C(Nc1ccc(F)c(F)c1)c1ccc2c(c1)OCO2", "displacement": 4.2}, {"smiles": "Cc1ccc(N=Cc2ccccc2OCc2ccccc2)c(O)c1", "displacement": -14.2}, {"smiles": "Cn1ccnc1SCC(=O)n1c2c(c3ccccc31)CCCC2", "displacement": -9.5}, {"smiles": "O=C1N=c2ccccc2=C1c1sc(=S)n(Cc2ccco2)c1O", "displacement": 12.1}, {"smiles": "COC(=O)C1=C(C)NC(=O)CC1c1ccccc1Br", "note": "(configuration not stated)", "displacement": -0.4}, {"smiles": "CC(=O)COc1ccc2c3c(c(=O)oc2c1)CCC3", "displacement": -0.7}, {"smiles": "CCOc1cc(CNc2ccccc2)ccc1OC", "displacement": 4.5}, {"smiles": "O=C1C(Nc2ccccc2)=CC(c2ccc3c(c2)OCO3)N1c1ccccc1", "note": "(configuration not stated)", "displacement": 0.4}, {"smiles": "Cc1cc(=O)oc2cc(OCC(=O)c3ccc(F)cc3)ccc12", "displacement": 10.9}, {"smiles": "COc1ccc(C)cc1NC(=O)c1ccc(Cl)c(Cl)c1", "displacement": -1.1}, {"smiles": "COc1ccc(CNC(=O)c2cnn3c(C(F)(F)F)cc(-c4ccc(OC)cc4)nc23)cc1", "displacement": 9.2}, {"smiles": "Cc1ccccc1OCC(=O)Nc1ccccc1C(C)C", "displacement": -7.2}, {"smiles": "COc1cccc(C(=O)N2CCN(Cc3ccco3)CC2)c1", "displacement": 5.7}, {"smiles": "COc1cccc(-n2c(O)c(C=Nc3cc(OC)c(OC)c(OC)c3)c(=O)[nH]c2=O)c1", "displacement": 3.7}, {"smiles": "CCN(CC)S(=O)(=O)c1ccc(C(C)(C)C)cc1", "displacement": 5.3}, {"smiles": "COc1ccc(N2C(=O)c3ccccc3NC2c2ccc(OC)c(Cn3nc(C)c(Cl)c3C)c2)cc1", "note": "(configuration not stated)", "displacement": -4.3}, {"smiles": "O=C(CC1CCCCC1)NCc1ccccc1", "displacement": 0.7}, {"smiles": "O=C(c1cc(Cl)cc(Cl)c1)n1ccnc1", "displacement": 2.1}, {"smiles": "O=C(O)C1CC=CCC1C(=O)N1CCN(c2ccc(F)cc2)CC1", "note": "(configuration not stated)", "displacement": -0.2}, {"smiles": "C=CC(=O)NC(NC(=O)C=C)c1cccc([N+](=O)[O-])c1", "displacement": -8.2}, {"smiles": "COc1ccc(C(=O)CC(CC(=O)c2ccc(OC)cc2)c2cccs2)cc1", "displacement": 12}, {"smiles": "O=C(O)C1CCCCC1C(=O)N1CCN(c2cccc(Cl)c2)CC1", "note": "(configuration not stated)", "displacement": -17.3}, {"smiles": "Cc1cc(Cl)ccc1OCC(=O)N1CCN(c2ccccc2)CC1", "displacement": -2.3}, {"smiles": "COC(=O)C1=C(C)NC(=S)NC1c1ccc(Cl)cc1", "note": "(configuration not stated)", "displacement": 10.4}, {"smiles": "CC(=O)c1ccc(C(C)(C)C)cc1NC(=O)c1ccccc1", "displacement": -0.9}, {"smiles": "COc1ccccc1NC(=O)N1CCc2ccccc21", "displacement": -3}, {"smiles": "COc1ccc(/C=C(/C#N)C(=O)Nc2cccc(Br)c2)cc1C", "displacement": -20.8}, {"smiles": "O=C1NC(=S)S/C1=C/c1ccc(Cl)cc1", "displacement": 5.6}, {"smiles": "Cc1cc([N+](=O)[O-])ccc1NC(=O)/C=C/c1ccc2c(c1)OCO2", "displacement": 3.9}, {"smiles": "COc1ccc(NC(=S)N/C(=N\\S(=O)(=O)c2ccccc2)c2ccccc2)cc1", "displacement": 13.2}, {"smiles": "COc1cc2ccccc2cc1C(=O)Nc1cccc(-c2nc3cc(C)cc(C)c3o2)c1C", "displacement": 26.5}, {"smiles": "O=C(Nc1ccc(NC(=O)c2cccc(F)c2)cc1)c1cccc(F)c1", "displacement": 5.9}, {"smiles": "COc1ccc(-c2noc(COc3ccc(C)cc3Br)n2)cc1", "displacement": 6.5}, {"smiles": "S=C(NCCc1ccccc1)Nc1ccc(Cl)cc1Cl", "displacement": -5.1}, {"smiles": "CCN(C(=O)c1ccc(C)c([N+](=O)[O-])c1)c1ccccc1C", "displacement": 4.1}, {"smiles": "Cc1cccc(-c2cc(NC(=O)c3ccccc3[N+](=O)[O-])n[nH]2)c1", "displacement": 7.3}, {"smiles": "CCCOc1ccc(C(=O)Nc2nc3ccc(OCC)cc3s2)cc1", "displacement": 3.9}, {"smiles": "Cc1ccc(C(=O)N/C(=C/c2ccccc2F)C(=O)NN)cc1", "displacement": -13.8}, {"smiles": "CC1=C(C(=O)OC(C)C)C(c2ccccc2F)CC(=O)N1", "note": "(configuration not stated)", "displacement": -19.1}, {"smiles": "CC1(C)C2CCC1(C)C(NC(=O)C1CC3c4ccccc4C1c1ccccc13)C2", "note": "(configuration not stated)", "displacement": 0.9}, {"smiles": "O=C(NNc1ccc([N+](=O)[O-])cc1[N+](=O)[O-])c1ccc(O)cc1", "displacement": -7.4}, {"smiles": "CCOc1ccccc1N1C(=O)c2cccc3cccc(c23)C1=O", "displacement": -1.8}, {"smiles": "CCN(CC)c1ccc(N=Cc2ccc3ccccc3c2)cc1", "displacement": -6.1}, {"smiles": "CCOc1ccc(C(=O)Nc2nnc(CC)s2)cc1[N+](=O)[O-]", "displacement": 9.6}, {"smiles": "COc1ccc(C2CC(C(F)(F)F)n3ncc(C(=O)Nc4cccc(C(C)O)c4)c3N2)cc1OC", "note": "(configuration not stated)", "displacement": 4.2}, {"smiles": "C/C(=N/N1CCN(Cc2ccccc2)CC1)c1ccc(Cl)cc1", "displacement": -4.7}, {"smiles": "O=C(O)c1cc(-c2cn[nH]c2-c2ccccc2)nc2ccc3ccccc3c12", "displacement": -10.8}, {"smiles": "CCOc1cc(/C=C2/C(=O)NC(=O)N(c3ccc(C(C)C)cc3)C2=O)ccc1OCC(=O)O", "displacement": -14}, {"smiles": "O=C(NCc1ccco1)N1CCCCC1", "displacement": -1.7}, {"smiles": "COc1ccccc1N(CC(=O)NCCC1=CCCCC1)S(=O)(=O)c1ccccc1", "displacement": -16.5}, {"smiles": "CC(C)(CNC(=O)c1cccnc1)CNC(=O)c1cccnc1", "displacement": 7.9}, {"smiles": "Cn1ccnc1-c1ccc(-c2nccn2C)cc1", "displacement": 11.8}, {"smiles": "Cc1cc(C)n(-c2nc(Nc3ccc(Br)cc3)nc(-n3nc(C)cc3C)n2)n1", "displacement": 28.1}, {"smiles": "Nc1nc(-c2ccc3c(c2)OCO3)cs1", "displacement": 13.6}, {"smiles": "CCOc1ccc(C(=O)Nc2cccc(-c3nc4cc(CC)ccc4o3)c2)cc1[N+](=O)[O-]", "displacement": 20.5}, {"smiles": "COc1cccc(/C=C2\\N=C(c3cccs3)OC2=O)c1OC", "displacement": 59.5}, {"smiles": "CC(C)Nc1nc(-c2ccc(Cl)cc2)nc2ccccc12", "displacement": 15.9}, {"smiles": "CC(=O)N1CCN(c2ccc(NC(=O)c3ccccc3Br)cc2)CC1", "displacement": 5.6}, {"smiles": "Cc1ccccc1NC(=O)CSc1ccccc1", "displacement": 8.5}, {"smiles": "O=C(Nc1ccccc1C(F)(F)F)c1cc2ccccc2oc1=O", "displacement": -2.3}, {"smiles": "CCc1ccccc1NC(=O)CN(c1cc(OC)ccc1OC)S(C)(=O)=O", "displacement": 15}, {"smiles": "CCOc1ccc(C2=C/C(=C/c3ccc(I)o3)C(=O)O2)cc1", "displacement": -1.7}, {"smiles": "CCCCSc1nc2cc(C)ccc2n1C", "displacement": 4.8}, {"smiles": "CCOC(=O)C1=C(O)/C(=C\\c2ccccc2[N+](=O)[O-])N=C1C", "displacement": 15.7}, {"smiles": "O=C(/C=C/c1cccs1)Nc1ncc(Cc2ccc(F)cc2)s1", "displacement": -4.5}, {"smiles": "Cc1ccc(C(=O)c2ccc(Br)cc2)cc1S(=O)(=O)NCc1ccccc1", "displacement": -3.6}, {"smiles": "Cc1c(-c2ccc(Cl)cc2Cl)nc2ccccc2c1C(=O)O", "displacement": -9.9}, {"smiles": "O=C(Nc1ccc(Br)cc1)C1C2/C=C\\CCCCC21", "note": "(configuration not stated)", "displacement": -15.9}, {"smiles": "COc1cccc(/C=C2/C(=O)NC(=S)N(c3cccc(Br)c3)C2=O)c1O", "displacement": 5.4}, {"smiles": "COc1cccc(N(C=O)C(=O)C2C3C=CC(C3=C3CCCC3)C2C)c1", "note": "(configuration not stated)", "displacement": -7.1}, {"smiles": "CCOc1ccccc1/C=C1/SC(NC(C)=O)=NC1=O", "displacement": 12.9}, {"smiles": "COC(=O)CN1C(=O)/C(=C/c2ccc(OCc3ccccc3Cl)c(OC)c2)SC1=S", "displacement": 10.3}, {"smiles": "CCOc1ccc(C(=O)Nc2ccc(NC(=O)c3ccco3)c(OC)c2)cc1[N+](=O)[O-]", "displacement": 0.7}, {"smiles": "COc1cc(NC(=O)Cc2ccc(Cl)cc2)cc(OC)c1", "displacement": -0.3}, {"smiles": "O=C(O)c1ccc(-c2ccc(OC(F)(F)F)cc2)o1", "displacement": -7.6}, {"smiles": "COc1ccccc1/C=C1/SC(=S)N(CCC(=O)Nc2c(C)n(C)n(-c3ccccc3)c2=O)C1=O", "displacement": 1.9}]}]}
